In US10278965B2, “Method of detecting cancer stem cell, method of screening cancer stem cell, and method of inhibiting cancer stem cell” (CANON KABUSHIKI KAISHA, priority 2012, dated 2019):
At least one read-out could not be matched to a standard name with certainty. Some compounds share one wording; it may come from a single statement.

How the values were obtained:
[1] = tested on: Human chronic myelocytic leukemia cells, K562, ALDH (+) fraction (cancer stem cells); test: Cancer stem-cell selective inhibitory action against chronic myelocytic leukemia cells, ALDH (+) fraction; assay type: cell-based; conditions: 24 hours
Description: (§1) Human chronic myelocytic leukemia cells, K562, were pre-cultured in RPMI1640 medium containing 10% FBS at 37° C. in a 5% CO2 ambient. Then, a fraction containing 80% or more of cancer stem cells was extracted by use of a cancer stem cell marker, ALDEFLUOR reagent (manufactured by VERITAS Corporation) and FACSAria flow cytometry (manufactured by Nippon Becton, Dickinson and Company). […] The cultured cells were analyzed for viable cell count according to CellTiter-Glo Luminescent Cell Viability Assay (manufactured by Promega KK.). […] Note that hereinafter, an ALDEFLUOR reagent positive fraction (deemed as cancer stem cells) is represented by ALDH (+), whereas an ALDEFLUOR reagent negative fraction (not deemed as cancer stem cells) is represented by ALDH (−), in some cases.
(§2) Further, the growth suppressive effect of cancer stem cells was evaluated based on the following criteria. Note that the growth rate in Examples is a value obtained by dividing viable cell count after culture by the number of cells at the initiation time of culture.

[2] = tested on: Human chronic myelocytic leukemia cells, K562, ALDH (−) fraction (general cancer cells); test: Cancer stem-cell selective inhibitory action against chronic myelocytic leukemia cells, ALDH (−) fraction; assay type: cell-based; conditions: 24 hours
Description: as §1, §2

| SMILES | ALDH(+) growth rate ([1]; 10 μg/ml) | Growth suppression evaluated ([1]; 10 μg/ml) | ALDH(−) growth rate ([2]; 10 μg/ml) | ALDH(+) growth rate ([1]; 1 μg/ml) | Growth suppression evaluated ([1]; 1 μg/ml) | ALDH(−) growth rate ([2]; 1 μg/ml) | other results |
| --- | --- | --- | --- | --- | --- | --- | --- |
| CN1/C(=C/C=C/C=C/C2=[N+](C)c3ccc4ccccc4c3C2(C)C)C(C)(C)c2cc(Cl)ccc21 [Compound 60] | 0.04 | A (The growth rate of ALDH (+) is less than 0.5) | 0.12 |  |  |  |  |
| CCC(/C=C1\Oc2ccccc2N1CC)=C\c1oc2ccccc2[n+]1CC [Compound 56] | 0.42 | A (The growth rate of ALDH (+) is less than 0.5) | 0.65 |  |  |  |  |
| CCN1/C(=C\C(C)=C\c2sc3ccccc3[n+]2CC)Sc2ccccc21 [Compound 5] | 0.71 | B (The growth rate of ALDH (+) is 0.5 or more and less than 0.95) | 0.90 |  |  |  |  |
| CCCCCN1/C(=C\C=C\c2oc3ccccc3[n+]2CCCCC)Oc2ccccc21 [Compound 16] |  |  |  | 0.16 | A (The growth rate of ALDH (+) is less than 0.5) | 0.34 | ALDH(+) growth rate ([1]; 0.05 μg/ml): 0.68; Growth suppression evaluated ([1]; 0.05 μg/ml): B (The growth rate of ALDH (+) is 0.5 or more and less than 0.95); ALDH(+) growth rate ([1]; 0.5 μg/ml): 0.36; Growth suppression evaluated ([1]; 0.5 μg/ml): A (The growth rate of ALDH (+) is less than 0.5); ALDH(−) growth rate ([2]; 0.05 μg/ml): 0.78; ALDH(−) growth rate ([2]; 0.5 μg/ml): 0.52 |
| CCN1C=C/C(=C/C=C/c2oc3ccccc3[n+]2CC)c2ccccc21 [Compound 35] | 0.55 | B (The growth rate of ALDH (+) is 0.5 or more and less than 0.95) | 0.80 | 0.44 | A (The growth rate of ALDH (+) is less than 0.5) | 0.49 | ALDH(+) growth rate ([1]; 0.05 μg/ml): 0.67; Growth suppression evaluated ([1]; 0.05 μg/ml): B (The growth rate of ALDH (+) is 0.5 or more and less than 0.95); ALDH(+) growth rate ([1]; 0.5 μg/ml): 0.43; Growth suppression evaluated ([1]; 0.5 μg/ml): A (The growth rate of ALDH (+) is less than 0.5); ALDH(−) growth rate ([2]; 0.05 μg/ml): 0.87; ALDH(−) growth rate ([2]; 0.5 μg/ml): 0.66 |
| CCN1/C(=C/C=C/C=C/C=C/C2=[N+](CC)c3ccccc3C2(C)C)C(C)(C)c2ccccc21 [Compound 32] | 0.09 | A (The growth rate of ALDH (+) is less than 0.5) | 0.29 |  |  |  |  |
| CCC(=C\c1oc2ccc(-c3ccccc3)cc2[n+]1CC)/C=C1/Oc2ccc(-c3ccccc3)cc2N1CC [Compound 57] | 0.55 | B (The growth rate of ALDH (+) is 0.5 or more and less than 0.95) | 0.68 |  |  |  |  |
| O=C(O)CN1/C(=C\C2=C(Cl)C(=C/c3sc4ccccc4[n+]3CC(=O)O)/CCC2)Sc2ccccc21 [Comparative compound 3, reference compound] |  |  |  | 1.09 | C (The growth rate of ALDH (+) is 0.95 or more) | 1.38 |  |
| CCCCN1/C(=C/C=C2\CCCC(/C=C/C3=[N+](CCCC)c4ccccc4C3(C)C)=C2c2ccccc2)C(C)(C)c2ccccc21 [Compound 54] | 0.07 | A (The growth rate of ALDH (+) is less than 0.5) | 0.13 |  |  |  |  |
| Cc1ccc(NC(=O)c2ccc(CN3CCN(C)CC3)cc2)cc1Nc1nccc(-c2cccnc2)n1 [Imatinib, reference compound] |  |  |  |  |  |  | ALDH(+) growth rate ([1]; 0.12 μg/ml): 0.74; Growth suppression evaluated ([1]; 0.12 μg/ml): B (The growth rate of ALDH (+) is 0.5 or more and less than 0.95); ALDH(+) growth rate ([1]; 0.24 μg/ml): 0.59; Growth suppression evaluated ([1]; 0.24 μg/ml): B (The growth rate of ALDH (+) is 0.5 or more and less than 0.95); ALDH(+) growth rate ([1]; 0.35 μg/ml): 0.48; Growth suppression evaluated ([1]; 0.35 μg/ml): A (The growth rate of ALDH (+) is less than 0.5); ALDH(+) growth rate ([1]; 0.47 μg/ml): 0.36; Growth suppression evaluated ([1]; 0.47 μg/ml): A (The growth rate of ALDH (+) is less than 0.5); ALDH(+) growth rate ([1]; 0.59 μg/ml): 0.31; Growth suppression evaluated ([1]; 0.59 μg/ml): A (The growth rate of ALDH (+) is less than 0.5); ALDH(−) growth rate ([2]; 0.12 μg/ml): 0.51; ALDH(−) growth rate ([2]; 0.24 μg/ml): 0.40; ALDH(−) growth rate ([2]; 0.35 μg/ml): 0.32; ALDH(−) growth rate ([2]; 0.47 μg/ml): 0.22; ALDH(−) growth rate ([2]; 0.59 μg/ml): 0.11 |
| CCN1/C(=C\C=C\c2sc3ccccc3[n+]2CC)Sc2ccccc21 [Compound 1] | 0.45 | A (The growth rate of ALDH (+) is less than 0.5) | 0.52 |  |  |  |  |
| CN1/C(=C/C=C2\CCCC(/C=C/C3=[N+](C)c4ccccc4C3(C)C)=C2Sc2ccccc2)C(C)(C)c2ccccc21 [Compound 59] | 0.02 | A (The growth rate of ALDH (+) is less than 0.5) | 0.10 | 0.14 | A (The growth rate of ALDH (+) is less than 0.5) | 0.21 |  |
| CCCN1\C(=C/C=C/C=C/C2=[N+](CCC)c3ccccc3C2(C)C)C(C)(C)c2ccccc21 [Compound 27] | 0.07 | A (The growth rate of ALDH (+) is less than 0.5) | 0.13 |  |  |  |  |
| CC(C)CCN1/C(=C/C=C/C=C/C2=[N+](CCC(C)C)c3ccc4ccccc4c3C2(C)C)C(C)(C)c2c1ccc1ccccc21 [Compound 55] | 0.04 | A (The growth rate of ALDH (+) is less than 0.5) | 0.11 |  |  |  |  |
| CCN1\C(=C/C=C/C=C/c2oc3ccccc3[n+]2CC)Oc2ccccc21 [Compound 28] | 0.30 | A (The growth rate of ALDH (+) is less than 0.5) | 0.43 | 0.65 | B (The growth rate of ALDH (+) is 0.5 or more and less than 0.95) | 0.77 |  |
| CCN1/C(=C\C=C\C2=[N+](CC)c3ccccc3C23CCCCC3)C2(CCCCC2)c2ccccc21 [Compound 24] |  |  |  | 0.19 | A (The growth rate of ALDH (+) is less than 0.5) | 0.39 | ALDH(+) growth rate ([1]; 0.05 μg/ml): 0.61; Growth suppression evaluated ([1]; 0.05 μg/ml): B (The growth rate of ALDH (+) is 0.5 or more and less than 0.95); ALDH(+) growth rate ([1]; 0.5 μg/ml): 0.39; Growth suppression evaluated ([1]; 0.5 μg/ml): A (The growth rate of ALDH (+) is less than 0.5); ALDH(−) growth rate ([2]; 0.05 μg/ml): 0.75; ALDH(−) growth rate ([2]; 0.5 μg/ml): 0.63 |
| CCCCCCCN1/C(=C\C=C\c2oc3ccccc3[n+]2CCCCCCC)Oc2ccccc21 [Compound 18] | 0.04 | A (The growth rate of ALDH (+) is less than 0.5) | 0.13 |  |  |  |  |
| CCCC[N+]1=C(/C=C/C2=C(Cl)C(=C/C=C3/N(C)c4ccccc4C3(C)C)/CCC2)C(C)(C)c2c1ccc1ccccc21 [Compound 51] | 0.03 | A (The growth rate of ALDH (+) is less than 0.5) | 0.11 |  |  |  |  |
